In publication PMC6919601, “Identification of Plasmodium dipeptidyl aminopeptidase allosteric inhibitors by high throughput screening” (PLoS ONE, 2019):
About 230 (0.21%) of roughly 110,000 compounds showed an effect of 50% or more. Some of the results follow.

Target: DPAP1 (Plasmodium falciparum, UniProt Q8IIJ9)
Assay: primary screen, percent inhibition; read by cleavage of a fluorogenic dipeptide substrate; higher = more effect of the substance
Set-up: species or system P. falciparum D10 trophozoite lysates; single well
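Further: 30 min substrate incubation versus DMSO and 10 µM JCP410 controls.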

DPAP1, sequence (Q8IIJ9 whole entry, looked up): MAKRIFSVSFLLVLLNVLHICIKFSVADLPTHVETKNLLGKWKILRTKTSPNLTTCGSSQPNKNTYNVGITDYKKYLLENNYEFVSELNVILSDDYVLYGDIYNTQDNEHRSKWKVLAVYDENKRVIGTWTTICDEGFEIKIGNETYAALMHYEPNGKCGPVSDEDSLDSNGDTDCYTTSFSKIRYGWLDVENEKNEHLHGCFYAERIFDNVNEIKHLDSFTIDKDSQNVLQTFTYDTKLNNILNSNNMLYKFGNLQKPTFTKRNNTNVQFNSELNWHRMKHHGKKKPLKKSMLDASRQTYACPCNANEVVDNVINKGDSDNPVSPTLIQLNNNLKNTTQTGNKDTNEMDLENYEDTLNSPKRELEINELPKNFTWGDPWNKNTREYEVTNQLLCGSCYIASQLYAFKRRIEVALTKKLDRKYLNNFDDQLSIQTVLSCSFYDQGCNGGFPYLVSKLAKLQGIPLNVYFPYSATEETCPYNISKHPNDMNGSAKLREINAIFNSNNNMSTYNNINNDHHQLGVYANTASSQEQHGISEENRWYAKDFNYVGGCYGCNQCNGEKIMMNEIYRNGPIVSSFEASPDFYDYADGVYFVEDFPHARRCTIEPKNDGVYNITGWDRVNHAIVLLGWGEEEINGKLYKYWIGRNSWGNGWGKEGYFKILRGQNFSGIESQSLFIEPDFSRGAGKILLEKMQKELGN

Row | SMILES | % Inhibition @ 10 uM
1 | Cn1c(=O)c2c(ncn2CC(=O)Nc2ccccc2C(N)=O)n(C)c1=O | -0.796%
2 | Cc1ccc(SC(C)C(=O)NCc2ccco2)cc1 (stereo not shown) | 1.87%
3 | O=C(Nc1ccncc1)c1c(O)c2c(n(Cc3ccco3)c1=O)CCCC2 | -2.17%
4 | Cc1c(/C(CC(C)C)=N/O)c2ccccc2n1C | -2.51%
5 | CSc1nc(C)c2cc(C)oc2n1 | -8.01%
6 | COc1ccc(C(=O)O/N=C2/c3ccccc3-c3ncccc32)cc1OC | -8.95%
7 | O=C(NCc1ccccc1)C(O)c1ccccc1 (stereo not shown) | 4.22%
8 | O=S(=O)(c1cccc(Cl)c1Cl)N1CCOCC1 | -0.771%
9 | CN(C)c1ccc(-c2nc3c(O)ncnc3[nH]2)cc1 | 16.8%
10 | CCN(CC)C(=O)C1=C(C)N=c2s/c(=C/c3ccc(O)cc3)c(=O)n2C1c1ccccc1OC (stereo not shown) | -8.41%
11 | Cc1cccc(-n2nnc(-c3ccccc3)c2N)c1 | -1.85%
12 | CCSc1nc2c(c(=O)[nH]c(=O)n2C)n1CC(O)COc1ccc(CC)cc1 (stereo not shown) | 2.08%
13 | CCOC(=O)c1c(/N=C/c2nc(-c3cccc(OC)c3)oc2O)sc2c1CCCC2 | -1.47%
14 | C/C(=N\OCC(=O)Nc1nc2ccccc2s1)c1ccccc1 | -11%
15 | COc1ccc(-c2csc(Nc3ncccc3C)n2)cc1OC | 3.38%
16 | O=C(c1ccc(Cl)cc1Cl)N1CCCC1 | 2.6%
17 | C=CCSc1nc2c(c(=O)n1C)C1(CCCC1)Cc1ccccc1-2 | 1.42%
18 | CC1(C)COC(COc2ccc(Cl)cc2)=N1 | -3.8%
19 | O=C(Cn1c(=O)c2cccn2c2cccnc21)NCc1ccco1 | -9.17%
20 | Cc1nn(C)c(C(=O)Nc2cccc(CN3CCOCC3)c2)c1Br | -8.68%
21 | CN1CCN(S(=O)(=O)c2ccc3oc(=O)c4ncn(C)c4c3c2)CC1 | -4.97%
22 | CCC[C@H](NC(=O)OC(C)(C)C)C(=O)NCC#N | -6.68%
23 | CC(=O)c1c(C)n(CCc2nc3ccccc3[nH]2)c(C)cc1=O | 2.77%
24 | CCCC(C)C1C(C#N)=C(N)OC2=C1C(=O)CC(C)(C)C2 (stereo not shown) | 2.46%
25 | O=C(C1=C(O)C(=O)N(c2cccnc2)C1c1cccc(F)c1)c1ccccc1 (stereo not shown) | -1.02%

Row | SMILES | % Inhibition @ 10 uM
26 | CC1(C)CC(=O)c2c(nc(S)c(C#N)c2-c2ccc(Br)cc2)C1 | 2.84%
27 | O=C(c1ccc(Br)o1)N(Cc1ccccc1)Cc1ccccc1 | -5.51%
28 | CC(C)NC(=O)CCCc1cn(C)c2ccccc12 | -1.34%
29 | COc1cc(OC)c(/C=C2\SC(=O)N(CC(=O)Nc3ccc(C)cc3)C2=O)c(OC)c1 | -1.43%
30 | Cc1cc(C)nc(NS(=O)(=O)c2ccc(NC(=O)c3ccc(Cl)cc3Cl)cc2)n1 | -0.949%
31 | O=C(CCn1c(=O)c2cccn2c2cccnc21)NCCN1CCOCC1 | -1.86%
32 | CCCCN(C)c1nc2c(-c3cccc(Br)c3)nnn2c2ccccc12 | -6.85%
33 | Cc1ccccc1CCNC(=O)Cn1nc(C)c2c(C)n(-c3ccccc3)nc2c1=O | 0.0496%
34 | CCCS(=O)(=O)N1CCN(S(=O)(=O)c2ccc(OC)cc2)CC1 | -3.06%
35 | CCOc1ccc(N2C(=O)CC(N3CCN(c4ccccc4OC)CC3)C2=O)cc1 (stereo not shown) | 0.709%
36 | N#Cc1c(-c2ccccc2)cc(-c2ccco2)c(C#N)c1N | 1.54%
37 | Cc1ccc(N2C(=O)C(NC(=O)C(C)(C)C)(C(F)(F)F)C3=C2CC(C)(C)CC3=O)cc1 (stereo not shown) | 3.74%
38 | COCCN1Cc2cccc(C(=O)NCc3ccc(C)cc3)c2C1=O | -2.29%
39 | COc1ccccc1C(=O)NCCC(C)C | 1.83%
40 | CC1=C(C(=O)Nc2cccnc2)C(c2cccnc2)n2nc(SCc3ccccc3F)nc2N1 (stereo not shown) | 1.52%
41 | CN(C1CCCCC1)S(=O)(=O)N1CCCC(C(=O)NCc2ccco2)C1 (stereo not shown) | -1.97%
42 | CSc1nc2c(c(=O)n1Cc1ccccc1)C1(CCCCC1)Cc1ccccc1-2 | 1.42%
43 | N#CC1=C(N)OC2=C(C(=O)CCC2)C1c1ccc(Br)cc1 (stereo not shown) | -3.72%
44 | CC1(C)Cc2c(c(N3CCOCC3)nc3sc(-c4cc(C(=O)O)co4)c(N)c23)CO1 | -5.41%
45 | Cc1cc2nc(O)c(O)nc2cc1S(=O)(=O)N1CCCCC1C (stereo not shown) | 0.107%
46 | Cc1ccc(NC(=O)c2cnn3c2NC(C2CC2)CC3C(F)F)cc1 (stereo not shown) | -9.25%
47 | Cc1cc(C(F)F)n2nc(C(=O)NCc3ccccc3C(F)(F)F)nc2n1 | 1.86%
48 | CC(CCc1ccccc1)NC(=O)CCn1ccc2cc(S(=O)(=O)N3CCCC3)ccc21 (stereo not shown) | 0.756%
49 | COc1ccc(C2C(C#N)=C(N)Oc3c2sc2ccccc32)c(OC)c1 (stereo not shown) | -2.07%
